Not every detail of the peptide structures is certain; ends, links or a residue may be inferred. At least one compound was matched to its structure with a doubt left. Numbered stars: 1 amine (or outer) side, 2 acyl side, 3 side chain; on linkers, the order of the positions; unused ones are H or OH. Bridge positions count the residues as written; N and C are the ends. Square brackets hold non-standard residues; d marks the D form. Peptide text beside a SMILES is read from it. X1 = O=C(C=NOCCCCCCOc1cc(C[*:2])cc(C[*:3])c1)[*:1]; tBuAla = CC(C)(C)C[C@H](N)C(=O)O; Met(O) = CS(=O)CC[C@H](N)C(=O)O; Nle = CCCC[C@H](N)C(=O)O
Biological target: T1, rh-integrin α4β7/LPAM-1 (Homo sapiens, UniProt P13612+P26010)
T1 sequence (P13612 34-977 limits assumed): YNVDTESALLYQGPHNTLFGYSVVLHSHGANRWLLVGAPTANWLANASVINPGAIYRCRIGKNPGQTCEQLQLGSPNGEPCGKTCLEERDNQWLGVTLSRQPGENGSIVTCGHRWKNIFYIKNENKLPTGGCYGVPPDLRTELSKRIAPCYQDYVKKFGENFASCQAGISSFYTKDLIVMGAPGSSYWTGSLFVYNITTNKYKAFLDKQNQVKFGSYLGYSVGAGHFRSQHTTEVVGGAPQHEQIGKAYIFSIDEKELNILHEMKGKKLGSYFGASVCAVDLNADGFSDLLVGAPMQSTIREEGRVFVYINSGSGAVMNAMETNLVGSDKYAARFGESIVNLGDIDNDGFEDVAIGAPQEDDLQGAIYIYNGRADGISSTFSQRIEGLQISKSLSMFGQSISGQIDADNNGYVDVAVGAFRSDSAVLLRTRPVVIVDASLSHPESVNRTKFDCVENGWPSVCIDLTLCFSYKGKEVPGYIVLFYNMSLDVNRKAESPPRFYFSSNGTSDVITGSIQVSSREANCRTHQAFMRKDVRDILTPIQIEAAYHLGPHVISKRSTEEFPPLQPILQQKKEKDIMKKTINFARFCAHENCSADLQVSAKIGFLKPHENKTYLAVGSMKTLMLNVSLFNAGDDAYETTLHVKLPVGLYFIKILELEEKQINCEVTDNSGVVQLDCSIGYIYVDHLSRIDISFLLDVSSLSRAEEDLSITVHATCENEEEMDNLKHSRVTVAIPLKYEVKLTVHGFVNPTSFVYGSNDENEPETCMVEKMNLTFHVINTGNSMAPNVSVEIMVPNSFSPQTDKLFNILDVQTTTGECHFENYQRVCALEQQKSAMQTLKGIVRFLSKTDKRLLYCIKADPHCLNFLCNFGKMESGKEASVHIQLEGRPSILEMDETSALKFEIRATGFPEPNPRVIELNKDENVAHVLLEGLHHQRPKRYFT
T1 sequence (P26010 20-723 limits assumed): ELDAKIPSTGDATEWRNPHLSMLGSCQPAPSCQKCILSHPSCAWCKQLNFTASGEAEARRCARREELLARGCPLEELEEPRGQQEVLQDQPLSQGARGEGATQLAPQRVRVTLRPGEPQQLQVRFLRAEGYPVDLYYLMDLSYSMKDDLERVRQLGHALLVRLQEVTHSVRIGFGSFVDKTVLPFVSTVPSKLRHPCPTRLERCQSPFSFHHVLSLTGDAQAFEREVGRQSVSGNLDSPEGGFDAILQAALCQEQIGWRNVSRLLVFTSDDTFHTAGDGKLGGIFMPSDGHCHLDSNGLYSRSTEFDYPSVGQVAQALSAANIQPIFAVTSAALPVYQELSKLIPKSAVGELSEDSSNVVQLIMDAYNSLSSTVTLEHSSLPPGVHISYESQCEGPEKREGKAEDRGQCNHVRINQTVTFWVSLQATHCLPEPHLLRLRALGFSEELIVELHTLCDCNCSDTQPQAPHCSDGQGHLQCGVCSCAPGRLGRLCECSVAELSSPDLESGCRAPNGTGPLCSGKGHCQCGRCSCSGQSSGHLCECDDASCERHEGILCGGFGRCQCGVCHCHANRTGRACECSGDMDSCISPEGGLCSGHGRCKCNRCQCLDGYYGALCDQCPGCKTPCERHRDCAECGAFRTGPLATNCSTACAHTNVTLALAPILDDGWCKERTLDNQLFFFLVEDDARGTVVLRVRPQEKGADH
Test: α4β7-MadCAM Competition ELISA (Example 4)
Assay type: binding
Conditions: 4 μg/mL α4β7 coated, MAdCAM and peptide mixture, 28° C.
Method: After washing with wash buffer, 200 μL assay buffer was added to each well and incubated for one hour at 28° C. After another wash with wash buffer, 100 μL of a MAdCAM and peptide mixture in assay buffer was added to each well and incubated for one hour at 28° C., followed by washing with wash buffer.

| SMILES | IC50 [µM] |
| --- | --- |
| CC(C)C[C@@H]1NC(=O)[C@@H]2CSCc3cc(cc(c3)OCCCCCCON=CC(=O)N[C@@H](Cc3ccccc3)C(=O)N2)CSC[C@@H](C(=O)O)NC(=O)[C@H](CO)NC(=O)[C@H](C)NC(=O)[C@H](CCC(=O)O)NC(=O)[C@H](Cc2ccc(O)cc2)NC(=O)CNC1=O [SEQ ID NO: 81] (FCLGYEASC-OH; linker N-2-9 via X1; C-terminus assumed) | 127 |
| O=C(O)C[C@@H]1NC(=O)C=NOCCCCCCOc2cc3cc(c2)CSC[C@H](NC1=O)C(=O)N[C@@H](Cc1ccc(O)cc1)C(=O)N1CCC[C@H]1C(=O)N[C@@H](CC(=O)O)C(=O)N[C@@H](Cc1ccccc1)C(=O)N[C@@H](Cc1ccc(O)cc1)C(=O)N[C@@H](Cc1c[nH]cn1)C(=O)N[C@H](C(=O)O)CSC3 [SEQ ID NO: 82] (DCYPDFYHC-OH; linker N-2-9 via X1; C-terminus assumed) | 124 |
| C[C@@H](O)[C@@H]1NC(=O)[C@H](CC(=O)O)NC(=O)[C@@H]2CCCN2C(=O)[C@H](Cc2c[nH]c3ccccc23)NC(=O)[C@@H]2CSCc3cc(cc(c3)OCCCCCCON=CC(=O)N[C@@H](CC(=O)O)C(=O)N2)CSC[C@@H](C(=O)O)NC(=O)[C@H](Cc2c[nH]cn2)NC(=O)[C@H](Cc2ccc(O)cc2)NC1=O [SEQ ID NO: 83] (DCWPDTYHC-OH; linker N-2-9 via X1; C-terminus assumed) | 114 |
| CC[C@H](C)[C@@H]1NC(=O)[C@H](CC(=O)O)NC(=O)[C@H](CC(C)C)NC(=O)[C@@H]2CSCc3cc(cc(c3)OCCCCCCON=CC(=O)N[C@@H](CCCNC(=N)N)C(=O)N2)CSC[C@@H](C(=O)O)NC(=O)[C@H](CC(=O)O)NC(=O)[C@H](Cc2ccc(O)cc2)NC(=O)[C@H](CCSC)NC1=O [SEQ ID NO: 84] (RCLDIMYDC-OH; linker N-2-9 via X1; C-terminus assumed) | 100 |
| CC(C)C[C@@H]1NC(=O)[C@H](CO)NC(=O)[C@H](CCCNC(=N)N)NC(=O)[C@@H]2CSCC(=O)N[C@@H](CCCNC(=N)N)C(=O)N[C@@H](CSSC[C@@H](C(=O)N[C@@H](Cc3c[nH]c4ccccc34)C(=O)N[C@@H](CCC(N)=O)C(N)=O)NC(=O)[C@H](C(C)C)NC(=O)[C@H](CC(=O)O)NC1=O)C(=O)N[C@@H](CO)C(=O)N[C@@H](CC(=O)O)C(=O)N[C@@H]([C@@H](C)O)C(=O)N[C@@H](CC(C)C)C(=O)N2 [SEQ ID NO: 87] | 71.3 |
| CC(C)C[C@@H]1NC(=O)CNC(=O)[C@H]([C@@H](C)O)NC(=O)[C@H](CC(=O)O)NC(=O)[C@H](CO)NC(=O)[C@@H]2CSCc3cc(cc(c3)OCCCCCCON=CC(=O)N[C@@H](C)C(=O)N2)CSC[C@@H](C(=O)O)NC(=O)[C@H](CCC(N)=O)NC1=O [SEQ ID NO: 88] (ACSDTGLQC-OH; linker N-2-9 via X1; C-terminus assumed) | 70.7 |
| CCCC[C@@H]1NC(=O)[C@H](CO)NC(=O)[C@@H]2CSSC[C@@H](C(=O)N[C@@H](Cc3c[nH]c4ccccc34)C(=O)N[C@@H](CCC(N)=O)C(=O)O)NC(=O)[C@H](CC(C)C)NC(=O)[C@H]([C@@H](C)O)NC(=O)[C@H](CC(=O)O)NC(=O)[C@H](CO)NC(=O)[C@H](CCCNC(=N)N)NC(=O)[C@H](CSCC(=O)N[C@@H](CCCNC(=N)N)C(=O)N2)NC(=O)[C@H]([C@@H](C)CC)NC(=O)[C@H](CC(=O)O)NC1=O [SEQ ID NO: 90] ({CH2CO}-RCS[Nle]DICRSDTLCWQ-OH; disulfide 2-13; thioether N-7; N-terminus and C-terminus assumed) | 34.3 |
| CSCC[C@@H]1NC(=O)[C@@H]2CCCN2C(=O)[C@@H]2CSCc3cc(cc(c3)OCCCCCCON=CC(=O)N[C@@H](C)C(=O)N2)CSC[C@@H](C(=O)O)NC(=O)[C@H](CCC(=O)O)NC(=O)CNC(=O)[C@H](Cc2c[nH]c3ccccc23)NC(=O)[C@H](C(C)C)NC(=O)[C@H](CC(=O)O)NC1=O [SEQ ID NO: 91] (ACPMDVWGEC-OH; linker N-2-10 via X1; C-terminus assumed) | 31.3 |
| CC(C)C[C@@H]1NC(=O)C=NOCCCCCCOc2cc3cc(c2)CSC[C@H](NC1=O)C(=O)N[C@@H](Cc1ccc(O)cc1)C(=O)N1CCC[C@H]1C(=O)N[C@@H](CC(=O)O)C(=O)N[C@@H]([C@@H](C)O)C(=O)N[C@@H](Cc1ccc(O)cc1)C(=O)N[C@@H](Cc1c[nH]cn1)C(=O)N[C@H](C(=O)O)CSC3 [SEQ ID NO: 92] (LCYPDTYHC-OH; linker N-2-9 via X1; C-terminus assumed) | 30.6 |
| CC[C@H](C)[C@@H]1NC(=O)[C@H](Cc2ccc(O)cc2)NC(=O)[C@H](CC(C)C)NC(=O)[C@@H]2CCCN2C(=O)[C@@H]2CSCc3cc(cc(c3)OCCCCCCON=CC(=O)N[C@@H](CCSC)C(=O)N2)CSC[C@@H](C(=O)O)NC(=O)[C@H](Cc2c[nH]cn2)NC(=O)[C@H](C(C)C)NC1=O [SEQ ID NO: 93] (MCPLYIVHC-OH; linker N-2-9 via X1; C-terminus assumed) | 29.4 |
| C[C@@H]1NC(=O)[C@H](CC(=O)O)NC(=O)[C@H](CC[S+](C)[O-])NC(=O)[C@@H]2CCCN2C(=O)[C@@H]2CSCc3cc(cc(c3)OCCCCCCON=CC(=O)N[C@@H](CCC(N)=O)C(=O)N2)CSC[C@@H](C(=O)O)NC(=O)[C@H]([C@@H](C)O)NC(=O)[C@@H]2CCCN2C1=O (stereo partly shown) [SEQ ID NO: 97] (QCP[Met(O)]DAPTC-OH; linker N-2-9 via X1) | 15.7 |
| CC(C)C[C@@H]1NC(=O)C=NOCCCCCCOc2cc3cc(c2)CSC[C@H](NC1=O)C(=O)N[C@@H](Cc1ccc(O)cc1)C(=O)N[C@@H](CCC(=O)O)C(=O)N[C@@H](Cc1c[nH]c2ccccc12)C(=O)N[C@@H](CCC(=O)O)C(=O)N[C@@H](Cc1c[nH]cn1)C(=O)N[C@@H](C)C(=O)N[C@H](C(=O)O)CSC3 [SEQ ID NO: 100] (LCYEWEHAC-OH; linker N-2-9 via X1; C-terminus assumed) | 7.95 |
| CC(C)[C@@H]1NC(=O)[C@H](CC(=O)O)NC(=O)[C@H](CC(C)(C)C)NC(=O)[C@@H]2CCCN2C(=O)[C@@H]2CSCc3cc(cc(c3)OCCCCCCON=CC(=O)N[C@@H](CCCNC(=N)N)C(=O)N2)CSC[C@@H](C(=O)O)NC(=O)[C@H](CCC(=O)O)NC(=O)CNC(=O)[C@H](Cc2c[nH]c3ccccc23)NC1=O [SEQ ID NO: 103] (RCP[tBuAla]DVWGEC-OH; linker N-2-10 via X1; C-terminus assumed) | 4.01 |
| C[C@@H]1NC(=O)C=NOCCCCCCOc2cc3cc(c2)CSC[C@H](NC1=O)C(=O)N[C@@H](C)C(=O)N[C@@H](Cc1c[nH]c2ccccc12)C(=O)N[C@@H](Cc1c[nH]cn1)C(=O)N[C@@H](CCC(N)=O)C(=O)N[C@@H](Cc1c[nH]cn1)C(=O)N[C@@H](C)C(=O)N[C@H](C(=O)O)CSC3 [SEQ ID NO: 104] (ACAWHQHAC-OH; linker N-2-9 via X1; C-terminus assumed) | 3.89 |
| CSCC[C@@H]1NC(=O)[C@@H]2CCCN2C(=O)[C@@H]2CSCc3cc(cc(c3)OCCCCCCON=CC(=O)N[C@@H](C)C(=O)N2)CSC[C@@H](C(=O)O)NC(=O)[C@H](CCC(=O)O)NC(=O)[C@H](CCC(N)=O)NC(=O)[C@H](Cc2c[nH]c3ccccc23)NC(=O)[C@H](C(C)C)NC(=O)[C@H](CC(=O)O)NC1=O [SEQ ID NO: 107] (ACPMDVWQEC-OH; linker N-2-10 via X1; C-terminus assumed) | 3.06 |
| CC(C)C[C@@H]1NC(=O)[C@H](C)NC(=O)[C@@H]2CSCc3cc(cc(c3)OCCCCCCON=CC(=O)N[C@@H](CCCCN)C(=O)N2)CSC[C@@H](C(=O)O)NC(=O)[C@H](CCC(=O)O)NC(=O)[C@H](Cc2ccc(O)cc2)NC(=O)[C@@H]2CCCN2C(=O)[C@H]([C@@H](C)O)NC(=O)[C@H](CC(=O)O)NC1=O [SEQ ID NO: 108] (KCALDTPYEC-OH; linker N-2-10 via X1; C-terminus assumed) | 2.7 |
